Assay results: PubChem BioAssay AID1508623 (National Center for Advancing Translational Sciences (NCATS), 2021)
The whole screen tested about 48,000 compounds, of which about 450 (0.94%) were called active. Roughly 19% stayed inconclusive and do not appear here. The call rests on the fitted dose curve; in most records, active means well fitted inhibition curve with a large enough effect; inconclusive means small, poorly fitted or top-dose-only effect; inactive means no such curve, though single readings can be large or run the other way. The list shows a part of the results.

assay: Primary qHTS for Identification of Small Molecule Inhibitors of Huntingtin Promoter Activity; conditions: HEK293 HTT promoter firefly luciferase reporter (activity 0% = vehicle and -100% = no light), 24 h; series mostly up to 57.5 µM; activity change, negative = inhibition: at the top concentration; further: nearly all actives have a fitted effect of over 50% in size
How it was run: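 Quantitative HTS used concentration series of up to 57.5 uM final on HEK293 luciferase reporter cells, 24 h at 37 degrees C. Readout was Dual-Glo firefly luminescence.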
Potency means the concentration at half of the fitted maximal effect.

Activity change, negative = inhibition, inactive:
CN1CCSc2ccc(C(=O)NCc3ccccc3)cc21 19.1%
CN1c2ccccc2C(=O)N2CCc3c([nH]c4ccccc34)C21 (stereo not given) -2.8%
O=C(c1ccco1)n1nc(-c2ccc(Cl)cc2)nc1NCc1ccc(F)cc1 -17.1%
COc1ccc(C2C(C(=O)Nc3ccccc3)=C(C)Nc3nc(-c4ccccc4Cl)nn32)cc1OC (stereo not given) -15.4%
CCOCCCNc1nc2cc(OC)c(OC)cc2c2nc(-c3ccccc3)nn12 -2.87%
CCOC(=O)c1scc(-c2ccc(C)cc2)c1S(=O)(=O)Nc1ccc(OC)c(Cl)c1 -31.3%
Cc1ccc(NC(=O)Cn2c(=O)n(CCC(=O)NCc3ccccc3Cl)c(=O)c3ccccc32)c(C)c1 -8.49%
Clc1ccccc1Nc1ncnc2c1nc1n2CCCCC1 -19.4%
O=C(Nc1ccc2nc(SCCOc3ccccc3)sc2c1)c1ccc2c(c1)OCO2 -3.35%
COc1cc2[nH]c(=O)n(CCCCCC(=O)N3CCN(c4ccc(Cl)cc4)CC3)c(=O)c2cc1OC -18.5%
Cc1cccc(Cn2c(=O)n(CC3CCC(C(=O)N4CCC(C)CC4)CC3)c(=O)c3sccc32)c1 (stereo not given) 0.297%
O=C(CSc1cn(CC(=O)N2CCCC2)c2ccccc12)Nc1ccccc1C(F)(F)F -17.5%
Cc1ccc(CNC(=O)CN(c2cc(C)cc(C)c2)S(=O)(=O)c2c(C)noc2C)cc1 5.21%
COC(=O)c1ccccc1NC(=O)c1ccc2c(Cl)c3c(nc2c1)CCCC3 42.4%
CCOC(=O)Cc1ccc(NC(=O)N2CC(C)Oc3ccc(Cl)cc32)cc1 (stereo not given) -17.4%
COc1cc2nc(NCc3ccccc3)n3nc(-c4ccccc4)nc3c2cc1OC -2.68%
Cc1nc2ccn(Cc3cccs3)c(=O)c2cc1C(=O)N1CCN(c2ccccc2)CC1 -9.83%
O=C(Nc1cccc(Br)c1)c1cc(-c2ccc3c(c2)OCCO3)on1 -27.7%
Cc1ccccc1CNCCSc1nnnn1-c1ccccc1 -9.01%
Cc1ccc2c(c1)N(CC(=O)NCCCN1CCCCC1C)C(=O)c1cccnc1O2 (stereo not given) -3.89%
Cc1ccc2c(c1)N(S(=O)(=O)c1ccc3c(c1)NC(=O)CC(=O)N3)CCO2 2.51%
COc1ccc(-n2c(=O)c3ccc(C(=O)NCc4ccc(C)cc4)cc3n(Cc3ccc(C)cc3)c2=O)cc1 -15.6%
Cc1nc2nc(SCC(=O)N(Cc3ccccc3)C(C)C)nn2c(C)c1Cc1ccccc1Cl -16.1%
Cc1cc(C)c2sc(N3CCN(C(=O)C4CC4)CC3)nc2c1 0%
COc1ccc(Oc2nc3c(C)cccn3c(=O)c2/C=C(\C#N)c2nc3ccccc3[nH]2)cc1 1.3%
CCc1ccc2ncc3c(-c4ccc(C)cc4)nn(CC(=O)Nc4ccc(C)cc4)c3c2c1 12.3%
Cc1cc(C)c(NC(=O)Cn2c(=O)n(-c3ccc(F)cc3)c(=O)c3c(C)c(C(=O)N(C)C)sc32)c(C)c1 -17.7%
COC(=O)c1cc2occc2n1Cc1nc(-c2cccc(Br)c2)oc1C 2.92%
COc1ccc(C(=O)c2sc(Nc3cc(Cl)ccc3C)nc2N)cc1OC -6.73%
COc1ccc(C(=O)Nc2ccccc2-c2nc3ccccc3s2)c(OC)c1 -25%
CCOC(=O)c1cnc2ccc(Cl)cc2c1Nc1ccc(OCC)cc1 -40.2%
Cc1cccn2c(=O)cc(COc3cccc(NC(=O)COc4ccccc4)c3)nc12 13%
COc1cccc(-c2nc3c(c(SCC(=O)Nc4cc(C)ccc4C)n2)Cc2c(CO)cnc(C)c2O3)c1 -22.5%
CC(=O)c1ccc(NC(=O)CCc2nc(-c3ccc(C)cc3)no2)cc1 -14.5%
CC(=O)c1ccc(NC(=O)CSc2nc(C3CCCC3)nc3c2c(=O)n(C)c(=O)n3C)cc1 -4.67%
Cc1nc(-n2nc(C)c(CCC(C)C)c2C)sc1C(=O)Nc1ccc(Br)cc1 -8.71%
COc1ccc(CCNC(=O)CCCn2c(SCC(N)=O)nc3cc4c(cc3c2=O)OCO4)cc1OC -18.1%
CCOC(=O)N1CCc2c(sc3c2c(=O)n(Cc2ccccc2)c(=O)n3Cc2ccc(C)cc2)C1 -4.14%
COc1ccc(CNC(=O)C2=C(C)C(=O)OC23CCN(C(C)=O)CC3)cc1 -3.98%
CCOc1ccccc1CNC(=O)c1ccc(Cn2c(SCc3ccccc3)nc3cccnc32)cc1 0.198%
CC(C)OC(=O)/C(C#N)=C/c1ccc(-c2ccc(Cl)c(Cl)c2)o1 -13.7% [at 11.5 µM]
Fc1ccc(N2CCN(Cc3cccn3-c3nnc(N4CCN(C5CCCCC5)CC4)s3)CC2)cc1 -2.3%
Cc1ccc(NC(=O)C2CCCN(c3cnccn3)C2)c(C)c1 (stereo not given) 16.5%
Nc1ncnc2nc[nH]c12 14.8%
Cc1cccc(C)c1NC(=O)CCS(=O)(=O)c1cccc2nonc12 -4.37%
CCOC(=O)c1ccc(NC2=CC(c3ccc(F)cc3)N(c3ccc(C(=O)OCC)cc3)C2=O)cc1 (stereo not given) 2.14%
CCOc1ccccc1NC(=O)c1cc2c(=O)n(Cc3cccnc3)ccc2nc1C -0.774%
CCCSc1nc2sc3c(c2c(=O)n1-c1cccc(Br)c1)CC(C)(C)OC3 4.94%
Cc1ccccc1Cn1c(SCc2ccc(C(=O)NC3CCCC3)cc2)nc2ccncc21 -2.54%
COc1ccccc1CNC(=O)CCNS(=O)(=O)c1cccc2nsnc12 -2.81%
Cc1nc2c(c(C)nn2-c2ccccc2)c(C)c1CCC(=O)NCCc1ccc(Cl)cc1 5.09%
COc1cccc(NC(=O)N2CCN(C(=O)c3nsc4ccccc34)CC2)c1 -21.6%
COc1ccc(NC(=O)N2CCN3CCCCC3C2)cc1OC (stereo not given) -4.89%
COc1cc(C2NC(=O)c3c(sc4c3CCN(C)C4)N2)ccc1OC(=O)c1ccccc1 (stereo not given) 64.5%
Cc1ccc(S(=O)(=O)c2nnn3c2nc(NCc2ccccc2Cl)c2sccc23)cc1 -4.87%
CCOC(=O)c1ccc(NC(=O)c2nn(C)c3c2COc2ccccc2-3)cc1 -16.1%
CC(C)c1ccc(OCc2cc(=O)n3c(-c4ccccc4)csc3n2)cc1 -16.1%
COc1cc(-c2cc(OC)c3c(C)oc(C)c3c(=O)c2)ccc1OC(=O)c1cccc(Cl)c1 -7.99%
COc1ccc(NC(=O)CCCN2C(=O)COc3ccc(C)cc32)cc1OC -29.9%
O=C(Cn1c(=O)n(-c2ccc(Cl)cc2)c(=O)c2c3c(sc21)CCC3)c1ccccc1 -11.2%
CCCCN1CCCC[C@H]1C(=O)Nc1c(C)cccc1C -9.58%
CC(C)(C)OC(=O)N1CCC(c2c(C(=O)N3CCN(C(=O)c4ccco4)CC3)cnn2-c2ccccc2Cl)CC1 -15%
COCCCNC(=O)c1ccc2c(c1)NC(=O)C(C(C)C)N2 (stereo not given) -13.4%
CCc1ccc(S(=O)(=O)c2nnn3c2nc(NCCNC(C)=O)c2cc(Cl)ccc23)cc1 -13%
CC(C)(C)NC(=O)c1oc2ccccc2c1NC(=O)c1ccc(F)cc1 -17.9%
COc1ccc(CCN2C(=O)CN(C3CCC(C)CC3)C(=O)C2c2ccc(OC(C)C)c(OC)c2)cc1OC (stereo not given) -29.1%
Cc1ccccc1C(=O)c1cccn1CC(=O)NCc1cccc(Cl)c1 26.4%
CCc1nn(CCCC(=O)NC(C)c2ccccc2)c(=O)c2cc3occc3n12 (stereo not given) -11%
Cn1c(SCc2ccccc2F)nc2c([nH]c3ccccc32)c1=O 2.62%
CCCCNC(=O)C(CC)Sc1nc2ccccc2c(=O)n1CCc1ccc(OC)c(OC)c1 (stereo not given) -10.8%
CCc1ccc(NC(=O)Cn2c(-c3cncs3)nc3ccccc32)cc1 -3.38%
CCn1c2ccccc2c2cc(CN3CCN(Cc4ccccc4C)CC3)ccc21 -17.9%
COc1ccccc1C(=O)Nc1ccc(OCc2cc(=O)n3cc(C)sc3n2)cc1 -13.4%
COc1ccc(C)cc1NC(=O)c1ccc2c(c1)nnn2C1CCCC1 -35.5%
Cc1ccc2[nH]c(=O)c3cc(C(=O)NCCc4ccc(Cl)cc4)sc3c2c1 -3.72%
c1ccc(OCCn2c(COc3ccccc3)nc3ccccc32)cc1 -8.56%
O=C1c2oc3ccccc3c(=O)c2C(c2cccc(Cl)c2)N1c1ccccn1 (stereo not given) -8.17%
O=C(Cn1c(=O)c2cccn2c2cccnc21)NCc1ccccc1F -1.69%
CC1=C(C(=O)Nc2ccc(C)cc2C)C(c2ccccc2F)n2nc(SCC(=O)c3ccc(C)cc3)nc2N1 (stereo not given) -13.5%
Cc1cc2nc(-c3ccc(OCc4ccccc4)cc3)cc(C(F)(F)F)n2n1 -4.5%
Cc1cc(-n2c(C)nc3ccccc3c2=O)ccc1NC(=O)c1ccc([N+](=O)[O-])cc1 -17.7%
O=C(Nc1ccc(S(=O)(=O)N2CCCCCC2)cc1)c1cc(=O)c2ccccc2o1 -27.4%
CC(=O)c1ccc(N2CCN(C(=O)CCS(=O)(=O)c3ccc4c(c3)oc(=O)n4C)CC2)cc1 9.42% [at 11.5 µM]
CCOc1ccc(NS(=O)(=O)c2ccc3[nH]cc(C(=O)NCC4CCCO4)c(=O)c3c2)cc1 (stereo not given) 17%
Nc1c(-c2nc(-c3ccc(F)cc3)cs2)c2ccccn2c1C(=O)c1ccc2c(c1)OCO2 -9.7%
CCOc1ccc(N2CC(C(=O)NCc3nnnn3-c3ccc(C)c(C)c3)CC2=O)cc1 (stereo not given) 0.0349%
COc1ccc(NCc2cc3ccc(OC)cc3n(CC(=O)Nc3cc(Cl)ccc3C)c2=O)cc1 -4.35%
CCSc1ncc(Cl)c(C(=O)Nc2sc3c(c2C(=O)NC)CCCC3)n1 -8.26%
CC(Oc1ccccc1F)C(=O)Nc1ccc(-c2nc3ccccc3s2)cc1 (stereo not given) 24.2%
CCc1cccc(NC(=O)CN(C)S(=O)(=O)c2cccc3cccnc23)c1 -21.5%
Nc1ccc(C(=O)O)c(O)c1 3.5%
CC1CCc2c(sc(NC(=O)c3cc4nc(-c5ccc(Cl)cc5)cc(C(F)(F)F)n4n3)c2C#N)C1 (stereo not given) 4.13%
COc1ccc(S(=O)(=O)c2cnc(SCC(=O)Nc3cc(F)ccc3C)[nH]c2=O)cc1Cl -8.86%

Potency, active:
Cc1nc2cc(-c3ccccc3)nn2c(C)c1CCC(=O)NCc1cccc(Cl)c1 12.6 µM
COc1ccccc1N=c1scc(-c2ccc(S(=O)(=O)N3CCCC3)cc2)n1C 3.16 µM
